The other results are listed elsewhere or left out.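 How the source made its calls: active = average curve height above 101 Omnilog units; inactive = average height at or below 101.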 Single values are uncertain, as repeats are few or missing.
Experiments:
[1] = system: Acinetobacter baumannii AB6870155; assay: respiration area under curve on compound as sole carbon source (Biolog PM, 48 h) (arbitrary Omnilog units x h (AUC)); higher = more carbon source utilisation / respiration; conditions: Biolog inoculating fluid, temperature: 37 °C
[2] = system: Klebsiella pneumoniae KP6870155; assay: as above; conditions: Biolog inoculating fluid, temperature: 37 °C

| Structure (SMILES) | respiration area under curve [1] | respiration area under curve [2] |
| --- | --- | --- |
| NCCc1ccc(O)cc1 [Tyramine] | inactive: 2920 | active: 10400 |
| O=C(O)CC(Br)C(=O)O (stereo not drawn) [Bromo Succinic Acid] | inactive: 7560 | active: 8110 |
| NCC(O)c1ccc(O)cc1 (racemic) [D,L-Octopamine] | inactive: 1310 | active: 11300 |
| N#C[C@H](O[C@@H]1O[C@H](CO[C@@H]2O[C@H](CO)[C@@H](O)[C@H](O)[C@H]2O)[C@@H](O)[C@H](O)[C@H]1O)c1ccccc1 [Amygdalin] | inactive: 1480 | inactive: 5350 |
